Reference: patent US20240409647A1 (SINOMAB BIOSCIENCE, published 2024)

Legend:
[1] = molecular target: T1, human TSLP (R&D systems) (human, UniProt Q969D9 29-159); assay: ELISA, coated antigen 2 µg/mL
T1 construct: also called thymic stromal lymphopoietin

[2] = molecular target: T2, human IL-33 (R&D systems) (human, UniProt O95760 112-270); assay: BLI (Octet RED96), binder captured via anti-human Fab CH1, IL33 in solution
T2 sequence (looked up): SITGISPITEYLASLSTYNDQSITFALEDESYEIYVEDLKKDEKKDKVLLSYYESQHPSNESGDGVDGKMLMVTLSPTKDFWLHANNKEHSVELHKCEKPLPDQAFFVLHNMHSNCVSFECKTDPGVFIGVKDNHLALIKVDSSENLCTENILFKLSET

B1: SM17-hST2 (other)
heavy: QVQLVQSGAEVKKPGASVKVSCKASGYTFISYWMNWVRQAPGQGLEWMGRIDPYDSEIQYNQKFKDRVTMTRDTSISTAYMELSRLRSDDTAVYYCARSGGFDWFAYWGQGTLVTVSSASTKGPSVFPLAPCSRSTSESTAALGCLVKDYFPEPVTVSWNSGALTSGVHTFPAVLQSSGLYSLSSVVTVPSSSLGTKTYTCNVDHKPSNTKVDKRV[sequence of human IgG4 Fc with S228P (EU numbers) not given]GGGSGGGGSGGGGSKFSKQSWGLENEALIVRCPRQGKPSYTVDWYYSQTNKSIPTQERNRVFASGQLLKFLPAAVADSGIYTCIVRSPTFNRTGYANVTIYKKQSDCNVPDYLMYSTVSGSEKNSKIYCPTIDLYNWTAPLEWFKNCQALQGSRYRAHKSFLVIDNVMTEDAGDYTCKFIHNENGANYSVTATRSFTVKDEQGFSLFPVIGAPAQNEIKEVEIGKNANLTCSACFGKGTQFLAAVLWQLNGTKITDFGEPRIQQEEGQNQSFSNGLACLDMVLRIADVKEEDLLLQYDCLALNLHGLRRHTVRLSRKNPSKECF
light: DIQMTQSPSSLSASVGDRVTITCRASENINSNLAWYQQKPGKAPKLLLYDVTNLADGVPSRFSGSGSGTDYTLTISSLQPEDFATYYCQHFWGPPYTFGGGTKVEIKRTVAAPSVFIFPPSDEQLKSGTASVVCLLNNFYPREAKVQWKVDNALQSGNSQESVTEQDSKDSTYSLSSTLTLSKADYEKHKVYACEVTHQGLSSPVTKSFNRGEC
notes: Antibody-receptor fusion: SM17 IgG with the human ST2 extracellular domain fused to each heavy chain; also called SM-17-human ST2; SM17-ST2
For B1, the binding result [1] was “no binding (tested: 33.5 nM)”, the Kd [2] was 0.407 nM and the koff [2] was 0.000226 s⁻¹. The kon [2] was 556000 M⁻¹ s⁻¹.
